Test results reported in paper PMC9946837.
These are yes or no findings as the source states them, for the method shown. Binding seen in cells or lysates may run through a third protein. Some entries that bind do so weakly or less than the wild type. For part of these data: Sequences can lack the tags named with a protein.

Protein sequences, listed by entry. Tags and fused reporters are not part of them. Lines headed by an entry give the natural chain unless they say otherwise; changes in a name come on top.
UniProt Q8CHK4: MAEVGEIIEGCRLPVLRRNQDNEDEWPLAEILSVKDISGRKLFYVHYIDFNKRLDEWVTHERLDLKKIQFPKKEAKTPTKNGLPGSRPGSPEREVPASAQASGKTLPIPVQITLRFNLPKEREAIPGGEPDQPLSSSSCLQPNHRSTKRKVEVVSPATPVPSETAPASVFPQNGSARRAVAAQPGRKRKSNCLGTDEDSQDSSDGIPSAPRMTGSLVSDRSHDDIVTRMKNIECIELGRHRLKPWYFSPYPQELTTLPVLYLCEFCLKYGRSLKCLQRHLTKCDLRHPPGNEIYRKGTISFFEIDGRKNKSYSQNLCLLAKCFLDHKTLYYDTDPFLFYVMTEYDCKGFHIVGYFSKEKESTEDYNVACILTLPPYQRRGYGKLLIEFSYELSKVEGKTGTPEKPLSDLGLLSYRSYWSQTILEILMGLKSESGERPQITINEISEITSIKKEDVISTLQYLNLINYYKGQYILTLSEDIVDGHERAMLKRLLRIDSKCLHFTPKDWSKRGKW
UniProt Q9JI44: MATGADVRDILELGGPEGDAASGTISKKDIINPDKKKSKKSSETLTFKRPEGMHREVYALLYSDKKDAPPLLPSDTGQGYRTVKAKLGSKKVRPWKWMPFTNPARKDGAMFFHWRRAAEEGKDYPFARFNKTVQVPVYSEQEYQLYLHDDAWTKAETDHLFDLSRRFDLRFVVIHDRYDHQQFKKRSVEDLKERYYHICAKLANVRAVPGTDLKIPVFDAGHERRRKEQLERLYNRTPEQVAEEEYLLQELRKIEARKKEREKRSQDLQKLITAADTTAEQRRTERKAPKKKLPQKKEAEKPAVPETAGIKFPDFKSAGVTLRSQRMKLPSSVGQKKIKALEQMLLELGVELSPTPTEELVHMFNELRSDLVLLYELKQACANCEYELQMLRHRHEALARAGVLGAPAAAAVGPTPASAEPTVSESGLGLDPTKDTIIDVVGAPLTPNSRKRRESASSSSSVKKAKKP
UniProt Q9NPF5: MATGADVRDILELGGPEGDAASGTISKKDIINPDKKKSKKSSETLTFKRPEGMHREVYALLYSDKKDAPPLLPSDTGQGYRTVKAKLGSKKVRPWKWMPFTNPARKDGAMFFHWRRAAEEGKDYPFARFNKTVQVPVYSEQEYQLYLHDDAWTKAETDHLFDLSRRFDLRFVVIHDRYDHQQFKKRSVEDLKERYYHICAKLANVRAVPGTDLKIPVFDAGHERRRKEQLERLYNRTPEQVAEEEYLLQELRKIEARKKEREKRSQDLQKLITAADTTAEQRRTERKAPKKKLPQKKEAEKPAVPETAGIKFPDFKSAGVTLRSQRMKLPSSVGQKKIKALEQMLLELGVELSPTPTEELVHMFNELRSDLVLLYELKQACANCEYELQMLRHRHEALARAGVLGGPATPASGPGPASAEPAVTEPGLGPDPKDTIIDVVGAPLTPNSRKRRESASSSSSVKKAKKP
UniProt Q8CHI8: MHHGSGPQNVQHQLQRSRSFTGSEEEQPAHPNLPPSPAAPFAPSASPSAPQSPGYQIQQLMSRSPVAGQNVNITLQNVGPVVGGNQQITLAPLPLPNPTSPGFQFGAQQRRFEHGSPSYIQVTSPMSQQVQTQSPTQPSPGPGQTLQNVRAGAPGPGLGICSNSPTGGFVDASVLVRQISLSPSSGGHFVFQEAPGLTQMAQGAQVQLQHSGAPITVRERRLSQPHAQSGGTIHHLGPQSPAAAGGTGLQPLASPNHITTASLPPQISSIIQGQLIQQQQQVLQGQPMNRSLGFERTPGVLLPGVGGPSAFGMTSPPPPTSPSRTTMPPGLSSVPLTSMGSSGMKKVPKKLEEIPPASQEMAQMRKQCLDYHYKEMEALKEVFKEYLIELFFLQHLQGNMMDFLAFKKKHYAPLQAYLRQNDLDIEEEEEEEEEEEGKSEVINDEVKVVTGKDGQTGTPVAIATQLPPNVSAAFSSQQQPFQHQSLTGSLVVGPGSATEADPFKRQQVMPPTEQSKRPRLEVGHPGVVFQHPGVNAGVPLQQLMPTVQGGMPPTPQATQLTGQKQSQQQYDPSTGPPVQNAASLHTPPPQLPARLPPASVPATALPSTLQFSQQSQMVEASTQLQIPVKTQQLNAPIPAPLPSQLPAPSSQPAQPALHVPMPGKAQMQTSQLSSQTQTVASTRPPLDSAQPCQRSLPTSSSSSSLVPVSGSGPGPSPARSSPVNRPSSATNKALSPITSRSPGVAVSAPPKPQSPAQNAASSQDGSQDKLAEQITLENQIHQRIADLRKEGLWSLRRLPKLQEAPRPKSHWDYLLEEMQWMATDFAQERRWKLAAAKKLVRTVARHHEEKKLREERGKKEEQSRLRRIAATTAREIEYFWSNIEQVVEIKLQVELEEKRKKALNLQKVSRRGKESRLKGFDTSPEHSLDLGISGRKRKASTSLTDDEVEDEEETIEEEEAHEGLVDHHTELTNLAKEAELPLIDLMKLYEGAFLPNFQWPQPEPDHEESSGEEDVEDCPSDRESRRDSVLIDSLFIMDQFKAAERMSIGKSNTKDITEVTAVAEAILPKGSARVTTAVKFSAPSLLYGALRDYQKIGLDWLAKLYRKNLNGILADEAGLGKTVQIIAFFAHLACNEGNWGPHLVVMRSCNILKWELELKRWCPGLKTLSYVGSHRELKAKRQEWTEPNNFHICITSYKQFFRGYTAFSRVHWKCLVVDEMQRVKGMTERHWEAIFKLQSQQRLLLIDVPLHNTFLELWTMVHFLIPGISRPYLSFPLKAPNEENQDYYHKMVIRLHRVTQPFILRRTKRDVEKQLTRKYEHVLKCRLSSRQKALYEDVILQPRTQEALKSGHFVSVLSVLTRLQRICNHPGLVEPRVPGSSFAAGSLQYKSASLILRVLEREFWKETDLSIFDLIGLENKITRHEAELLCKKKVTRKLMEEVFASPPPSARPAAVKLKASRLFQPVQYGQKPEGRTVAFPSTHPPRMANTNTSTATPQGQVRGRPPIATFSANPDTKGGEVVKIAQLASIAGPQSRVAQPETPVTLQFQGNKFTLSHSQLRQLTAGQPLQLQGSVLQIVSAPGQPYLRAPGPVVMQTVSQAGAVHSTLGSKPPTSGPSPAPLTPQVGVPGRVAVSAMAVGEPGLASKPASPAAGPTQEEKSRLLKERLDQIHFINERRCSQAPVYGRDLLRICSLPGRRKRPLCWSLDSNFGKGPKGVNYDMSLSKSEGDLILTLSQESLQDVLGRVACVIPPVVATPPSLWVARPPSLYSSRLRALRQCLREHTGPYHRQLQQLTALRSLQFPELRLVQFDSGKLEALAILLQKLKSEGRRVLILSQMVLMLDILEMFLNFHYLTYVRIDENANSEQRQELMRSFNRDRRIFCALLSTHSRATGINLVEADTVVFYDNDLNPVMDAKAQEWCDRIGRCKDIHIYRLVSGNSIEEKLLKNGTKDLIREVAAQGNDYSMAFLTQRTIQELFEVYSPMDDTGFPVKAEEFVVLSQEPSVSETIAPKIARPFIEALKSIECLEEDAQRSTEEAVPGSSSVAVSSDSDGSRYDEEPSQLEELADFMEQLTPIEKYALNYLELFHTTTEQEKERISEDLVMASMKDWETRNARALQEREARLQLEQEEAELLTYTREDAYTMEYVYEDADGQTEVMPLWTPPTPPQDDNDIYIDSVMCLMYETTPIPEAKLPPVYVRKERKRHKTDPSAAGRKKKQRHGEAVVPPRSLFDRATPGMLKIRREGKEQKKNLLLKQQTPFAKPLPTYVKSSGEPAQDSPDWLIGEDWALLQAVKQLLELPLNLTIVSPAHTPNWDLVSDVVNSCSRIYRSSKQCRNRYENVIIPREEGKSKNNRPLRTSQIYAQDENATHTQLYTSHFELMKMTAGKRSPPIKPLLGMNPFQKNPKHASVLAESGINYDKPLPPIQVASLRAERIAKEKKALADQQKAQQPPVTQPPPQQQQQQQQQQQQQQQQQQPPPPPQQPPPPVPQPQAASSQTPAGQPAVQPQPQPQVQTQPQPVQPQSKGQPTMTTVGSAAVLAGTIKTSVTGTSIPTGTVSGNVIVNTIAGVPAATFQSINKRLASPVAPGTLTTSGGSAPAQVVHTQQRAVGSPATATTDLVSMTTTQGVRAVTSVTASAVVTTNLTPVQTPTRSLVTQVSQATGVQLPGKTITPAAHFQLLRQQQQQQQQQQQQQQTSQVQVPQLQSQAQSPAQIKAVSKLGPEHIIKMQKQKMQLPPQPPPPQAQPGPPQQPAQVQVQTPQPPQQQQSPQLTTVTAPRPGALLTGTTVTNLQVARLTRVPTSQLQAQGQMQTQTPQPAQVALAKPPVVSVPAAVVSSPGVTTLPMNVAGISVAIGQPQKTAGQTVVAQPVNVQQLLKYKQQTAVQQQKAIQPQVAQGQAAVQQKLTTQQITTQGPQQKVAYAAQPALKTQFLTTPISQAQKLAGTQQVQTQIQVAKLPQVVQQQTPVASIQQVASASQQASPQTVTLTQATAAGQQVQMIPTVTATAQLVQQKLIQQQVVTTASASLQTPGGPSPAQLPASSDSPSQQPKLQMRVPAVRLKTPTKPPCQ
UniProt P01101: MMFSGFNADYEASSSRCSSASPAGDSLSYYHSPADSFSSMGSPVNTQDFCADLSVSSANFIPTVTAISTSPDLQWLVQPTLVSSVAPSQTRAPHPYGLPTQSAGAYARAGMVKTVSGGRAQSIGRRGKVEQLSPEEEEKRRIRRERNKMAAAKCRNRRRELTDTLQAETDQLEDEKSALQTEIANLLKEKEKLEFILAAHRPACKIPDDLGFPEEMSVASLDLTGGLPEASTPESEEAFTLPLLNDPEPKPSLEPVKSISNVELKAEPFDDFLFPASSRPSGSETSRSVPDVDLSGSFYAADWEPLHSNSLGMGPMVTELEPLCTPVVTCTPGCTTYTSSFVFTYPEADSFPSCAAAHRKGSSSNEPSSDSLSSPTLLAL

Legend:
NPAS4–Flag-HA (mouse) = target: T1, NPAS4–Flag-HA (mouse) (UniProt Q8BGD7); experiment: co-IP; anti-Flag IP and Western blot from visual cortex (V1) of Npas4–Flag-HA or wild-type mice housed in the dark for 1 week, then 2 h light stimulation; conditions as for the hippocampal IP
T1 sequence: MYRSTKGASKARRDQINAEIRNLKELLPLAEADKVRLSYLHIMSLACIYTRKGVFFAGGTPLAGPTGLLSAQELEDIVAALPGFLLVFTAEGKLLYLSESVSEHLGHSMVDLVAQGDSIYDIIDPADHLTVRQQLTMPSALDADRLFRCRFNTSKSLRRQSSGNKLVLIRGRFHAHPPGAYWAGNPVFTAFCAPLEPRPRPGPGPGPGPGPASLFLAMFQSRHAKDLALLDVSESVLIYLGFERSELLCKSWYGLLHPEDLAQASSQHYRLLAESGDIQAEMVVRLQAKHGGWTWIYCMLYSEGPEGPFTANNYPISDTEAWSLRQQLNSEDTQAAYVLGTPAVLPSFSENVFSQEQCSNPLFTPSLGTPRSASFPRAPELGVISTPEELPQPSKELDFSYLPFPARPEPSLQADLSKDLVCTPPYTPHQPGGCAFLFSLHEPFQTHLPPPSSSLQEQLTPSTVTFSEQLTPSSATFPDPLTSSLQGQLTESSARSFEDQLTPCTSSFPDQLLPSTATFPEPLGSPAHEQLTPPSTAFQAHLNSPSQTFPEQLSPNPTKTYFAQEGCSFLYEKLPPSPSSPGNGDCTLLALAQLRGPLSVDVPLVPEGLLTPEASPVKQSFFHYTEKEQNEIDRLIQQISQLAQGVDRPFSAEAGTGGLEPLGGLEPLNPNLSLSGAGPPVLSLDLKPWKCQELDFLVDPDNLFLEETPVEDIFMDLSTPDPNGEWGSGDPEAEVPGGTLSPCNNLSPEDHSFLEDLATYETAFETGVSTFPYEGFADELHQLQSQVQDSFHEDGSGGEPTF

[1] = target: T2, Flag-HA-tagged full length NPAS4 (amino acids 1-802) (UniProt Q8BGD7); experiment: co-IP; sequential anti-Flag and anti-HA IP from nuclear lysates of transfected HEK293T cells, Western blot for NPAS4, ARNT2, TRRAP and DMAP1; washes with 250 mM NaCl; Flag-HA nuclear GFP as control
T2 sequence: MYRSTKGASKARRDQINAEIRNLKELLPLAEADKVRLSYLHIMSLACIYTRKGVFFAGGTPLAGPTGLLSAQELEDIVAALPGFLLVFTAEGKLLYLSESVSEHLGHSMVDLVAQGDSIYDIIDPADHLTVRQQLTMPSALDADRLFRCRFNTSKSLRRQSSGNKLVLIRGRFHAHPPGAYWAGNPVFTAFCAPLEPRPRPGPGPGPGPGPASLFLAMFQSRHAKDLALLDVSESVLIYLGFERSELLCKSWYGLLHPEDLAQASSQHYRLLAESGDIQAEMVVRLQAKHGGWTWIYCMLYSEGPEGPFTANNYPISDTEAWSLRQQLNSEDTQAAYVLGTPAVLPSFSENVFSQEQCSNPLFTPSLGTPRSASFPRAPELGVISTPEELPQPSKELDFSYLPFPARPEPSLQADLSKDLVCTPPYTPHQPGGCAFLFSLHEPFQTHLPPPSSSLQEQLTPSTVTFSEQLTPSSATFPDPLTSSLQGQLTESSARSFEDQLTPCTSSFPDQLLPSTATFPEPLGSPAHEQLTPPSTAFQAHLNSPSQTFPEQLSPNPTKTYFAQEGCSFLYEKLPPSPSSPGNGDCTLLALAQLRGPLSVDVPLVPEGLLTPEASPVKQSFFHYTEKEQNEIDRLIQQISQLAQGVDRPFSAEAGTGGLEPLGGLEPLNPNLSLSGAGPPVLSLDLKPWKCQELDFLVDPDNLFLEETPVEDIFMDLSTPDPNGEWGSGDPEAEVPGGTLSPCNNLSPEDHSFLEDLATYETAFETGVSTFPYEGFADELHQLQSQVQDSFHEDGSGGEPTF

[2] = target: TIP60-Flag (Tip60-H3F knock-in mice) (mouse) (UniProt Q8CHK4); experiment: co-IP; anti-Flag IP and Western blot from hippocampal nuclear lysates of wild-type, Npas4-FH and Tip60-Flag mice, unstimulated (0 h) and 2 h after kainic acid; conditions as for the IP–MS
[3] = target: TIP60-Flag (Tip60-H3F knock-in mice) (mouse) (UniProt Q8CHK4); experiment: co-IP; anti-Flag IP and Western blot from high molecular weight fractions (10–40% glycerol gradient) of cortical nuclear lysates of wild-type, Npas4-FH and Tip60-F mice 2 h after kainic acid; washes with 250 mM NaCl
[4] = target: TIP60-Flag (Tip60-H3F knock-in mice) (mouse) (UniProt Q8CHK4); experiment: co-IP; anti-Flag IP and Western blot from low molecular weight fractions (glycerol gradient) of cortical lysates of wild-type, Npas4-FH and Tip60-F mice
[5] = target: TIP60-Flag (Tip60-H3F knock-in mice) (mouse) (UniProt Q8CHK4); experiment: co-IP; anti-Flag IP and Western blot from hippocampal nuclear lysates of wild-type, Npas4-FH and Tip60-Flag mice, unstimulated (0 h) and 2 h after kainic acid; conditions as for the IP–MS; remark: listed apart in the source

DMAP1 (from UniProt Q9JI44 1-468) was tested, and the binding (NPAS4–Flag-HA (mouse)) was “binds”.

In the case of DMAP1 (from UniProt Q9NPF5 1-467), the binding [1] is reported as “binds”.

In the case of EP400 (from UniProt Q8CHI8 1-3072), the binding (NPAS4–Flag-HA (mouse)) is reported as “binds”.

In the case of FOS (from UniProt P01101 1-380), the binding [2] is reported as “no binding”.

TRRAP (from UniProt Q9Y4A5 1-3859) was tested, and the binding [1] was “binds”.

B1: NPAS4 (protein, UniProt Q8BGD7 1-802)
chain: MYRSTKGASKARRDQINAEIRNLKELLPLAEADKVRLSYLHIMSLACIYTRKGVFFAGGTPLAGPTGLLSAQELEDIVAALPGFLLVFTAEGKLLYLSESVSEHLGHSMVDLVAQGDSIYDIIDPADHLTVRQQLTMPSALDADRLFRCRFNTSKSLRRQSSGNKLVLIRGRFHAHPPGAYWAGNPVFTAFCAPLEPRPRPGPGPGPGPGPASLFLAMFQSRHAKDLALLDVSESVLIYLGFERSELLCKSWYGLLHPEDLAQASSQHYRLLAESGDIQAEMVVRLQAKHGGWTWIYCMLYSEGPEGPFTANNYPISDTEAWSLRQQLNSEDTQAAYVLGTPAVLPSFSENVFSQEQCSNPLFTPSLGTPRSASFPRAPELGVISTPEELPQPSKELDFSYLPFPARPEPSLQADLSKDLVCTPPYTPHQPGGCAFLFSLHEPFQTHLPPPSSSLQEQLTPSTVTFSEQLTPSSATFPDPLTSSLQGQLTESSARSFEDQLTPCTSSFPDQLLPSTATFPEPLGSPAHEQLTPPSTAFQAHLNSPSQTFPEQLSPNPTKTYFAQEGCSFLYEKLPPSPSSPGNGDCTLLALAQLRGPLSVDVPLVPEGLLTPEASPVKQSFFHYTEKEQNEIDRLIQQISQLAQGVDRPFSAEAGTGGLEPLGGLEPLNPNLSLSGAGPPVLSLDLKPWKCQELDFLVDPDNLFLEETPVEDIFMDLSTPDPNGEWGSGDPEAEVPGGTLSPCNNLSPEDHSFLEDLATYETAFETGVSTFPYEGFADELHQLQSQVQDSFHEDGSGGEPTF
With B1 the binding [3] was “binds”, the binding [4] was “binds” and the binding [5] was “binds”.

B2: NPAS3 (protein, UniProt Q9QZQ0 1-925)
chain: MGRAGAAANGTPQNVQGITSYQQRITAQHPLPNQSECRKIYRYDGIYCESTYQNLQALRKEKSRDAARSRRGKENFEFYELAKLLPLPAAITSQLDKASIIRLTISYLKMRDFANQGDPPWNLRMEGPPPNTSVKGAQRRRSPSALAIEVFEAHLGSHILQSLDGFVFALNQEGKFLYISETVSIYLGLSQVELTGSSVFDYVHPGDHVEMAEQLGMKLPPGRGLLSQGTTEDAASSASSSSQSETPEPVETTSPSLLTTDNTLERSFFIRMKSTLTKRGVHIKSSGYKVIHITGRLRLRVPLSHGRTVPSQIMGLVVVAHALPPPTINEVRIDCHMFVTRVNMDLNIIYCENRISDYMDLTPVDIVGKRCYHFIHAEDVEGIRHSHLDLLNKGQCVTKYYRWMQKNGGYIWIQSSATIAINAKNANEKNIIWVNYLLSNPEYKDTPMDIAQLPHLPEKASESSETSDSESDSKDTSGITEDNENSKSDEKGNQSENSEDPEPDRKKSGSACDNDMNCNDDGHSSSNPDSRDSDDSFEHSDFEHPKAAEDGFGALGPMQIKVERYVESEADLRLQPCESLTSDSAKDSDSANEAGAQASSKHQKRKRRRKRQKGGSASRRRLSSASSPGLDAGLVEPPRLLSSPHSASVLKIKTEIAEPINFDNESSIWNYPPNREISRNESPYSMTKPPTSEHFPSPQGQGGSIGGGGALHVAIPDSVLTPPGADGTAGRKTQFSGTAPVPSDPLSPPLSASPRDKHPGGGAGSGGGGPGASNSLLYTGDLEALQRLQAGNVVLPLVHRVTGTLAATSTAAQRVYTTGTIRYAPAEVTLAMQGNLLPNAHAVNFVDVNSPGFGLDPKTPMEMLYHHVHRLNMSGPFGGAVSAASLTQMPGGNVFTTAEGLFSTLPFPVYSNGIHAAQTLERKED
In the case of B2, the binding [5] is reported as “no binding”.
